{
  "source": "patent US20230121867A1",
  "about": "“COMPOSITIONS AND METHODS FOR TREATING DISEASES AND CONDITIONS BY DEPLETION OF MITOCHONDRIAL OR GENOMIC DNA FROM CIRCULATION” (Cedars-Sinai Medical Center, priority 2019, published 2023)",
  "key": {"[1]": {"test_system": "plasma mtDNA content", "assay": "Plasma mtDNA in mice treated with docetaxel", "format": "in vivo, mouse", "conditions": "6 mg/kg/week for three weeks, P < 0.05"}, "[2]": {"test_system": "LNCaP, PC3, and TRAMPC2 cells", "assay": "mtDNA secretion by PCa cell lines treated with docetaxel", "format": "cell-based", "conditions": "dose dependent manner"}, "[3]": {"test_system": "PC3 and CAF co-culture", "assay": "3D organotypic co-culture of PC3 and CAF, EpCAM+/Ki67+ FACS", "format": "cell-based", "conditions": "PC3 and CAF 3D co-culture, 48 hours"}},
  "data": [
    {"compound": "CC(=O)O[C@@]12CO[C@@H]1C[C@H](O)[C@@]1(C)C(=O)[C@H](O)C3=C(C)[C@@H](OC(=O)[C@H](O)[C@@H](NC(=O)OC(C)(C)C)c4ccccc4)C[C@@](O)([C@@H](OC(=O)c4ccccc4)[C@H]21)C3(C)C", "note": "[docetaxel]", "values": [
      {"measurement": "plasma mtDNA content", "setting": "[1]", "result": "significant elevation"},
      {"measurement": "mtDNA secretion", "setting": "[2]", "result": "profoundly elevate"},
      {"measurement": "EpCAM+/Ki67+ proliferative epithelial fraction", "setting": "[3]", "result": "did not appreciably reduce"}
    ]}
  ]
}
